Inconclusive results are not listed. Unless noted, calls come from the whole dose curve; as a rule, active = well fitted curve in the direction sought with a large enough effect in the repeat runs; inconclusive = weak or mixed curves; inactive = no such curve, though single readings can be large; an effect the other way counts as inactive or inconclusive. Where a structure was tested more than once in an assay, its records may differ in their call. Some entries of the source have several records that differ or are many. They are shown here; other results are not. The source may hold further records. The values listed for one entry are repeats across runs, samples, wells, individuals or studies. Brackets tell where a record comes from. Letters count within one entry.
Key:
[1] = qHTS assay to identify small molecule antagonists of the TGF-beta/Smad signaling pathway - cell viability counter screen (AID 1346824); conditions: SBE-bla HEK293T viability, CellTiter-Glo luminescence; series mostly up to 76.8 µM; note: nearly all actives have a fitted effect of over 50% in size
Outline: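 SBE-bla HEK 293T cells were plated overnight at 37 C, then given compounds in DMSO plus TGF-beta1 (added as 0.25 ng/mL solution) for 5 hr. After the bla read, CellTiter-Glo was added to the same wells and luminescence read after 30 min at room temperature.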

[2] = qHTS assay to identify small molecule antagonists of the thyroid receptor (TR) signaling pathway (AID 743065); conditions: GH3.TRE-Luc, T3-stimulated luciferase inhibition, 23.5 h; series mostly up to 70.3 µM; note: nearly all actives have a fitted effect of over 55% in size
Outline: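 GH3.TRE-Luc rat pituitary cells carrying two TR response elements driving luciferase were plated for 4 h, given compound plus 1 nM T3 (final), and incubated 23.5 h at 37 C. ONE-Glo luminescence measured reporter inhibition; CellTiter-Fluor fluorescence tracked cytotoxicity.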

[3] = qHTS assay to identify small molecule agonists or antagonists of the thyroid stimulating hormone receptor (TSHR) signaling pathway - wild type cell line counter screen (AID 1259384; calls by dose curve); conditions: HEK293 wild type, cAMP HTRF counter-screen; series mostly up to 92.4 µM
Outline: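 Wild-type HEK293 cells were plated 18 h at 37 C/5% CO2, pin-dosed with compound plus Ro20-1724 medium, held 30 min at room temperature, then given cAMP-d2 and anti-cAMP-cryptate; fluorescence was read after 1 h. Fifteen concentrations, triplicate.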

[4] = qHTS assay to identify small molecule agonists of the constitutive androstane receptor (CAR) signaling pathway - cell viability counter screen (AID 1224836); conditions: HepG2-CYP2B6-hCAR viability, CellTiter-Fluor, 23 h, PK11195 added to every well; series mostly up to 92.4 µM; note: nearly all actives have a fitted effect of over 45% in size
Outline: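 Using CellTiter-Fluor, viability of HepG2 cells harbouring hCAR and CYP2B6-2.2kb was measured following 23 h incubation with a 15-concentration compound series plus PK11195 (0.75 uM final).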

[5] = qHTS assay to identify small molecule antagonists of the constitutive androstane receptor (CAR) signaling pathway - cell viability counter screen (AID 1224837); conditions: HepG2-CYP2B6-hCAR viability, CellTiter-Fluor, 23 h, co-treated with 50 nM CITCO; series mostly up to 92.4 µM; note: nearly all actives have a fitted effect of over 45% in size
Outline: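 Viability was measured with CellTiter-Fluor in a HepG2 line carrying stably transfected hCAR and a CYP2B6-2.2kb construct. Cells were exposed for 23 hr at 37 C to 15 compound concentrations with 50 nM CITCO as agonist.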

[6] = qHTS assay to identify small molecule antagonists of the estrogen receptor alpha (ER-alpha) signaling pathway using the BG1 cell line in the presence of 0.1 nM 17-beta-estradiol - cell viability counter screen (AID 1259241); conditions: VM7Luc4E2 (BG1) viability, CellTiter-Fluor protease, 22 h, 0.1 nM estradiol agonist added; series mostly up to 92.4 µM; note: nearly all actives have a fitted effect of over 40% in size
Outline: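 Estradiol-stimulated (0.1 nM) VM7Luc4E2 cells exposed to compounds 22 hr; viability measured by fluorescence of cleaved CellTiter-Fluor substrate after 30 min.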

[7] = qHTS assay to identify small molecule antagonists of the progesterone receptor (PR) signaling pathway - cell viability counter screen (AID 1346798); conditions: PR-UAS-bla HEK293T viability, CellTiter-Glo luminescence, 16 h; series mostly up to 92.4 µM; note: nearly all actives have a fitted effect of over 50% in size
Outline: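 Following a 4 hr attachment, PR-UAS-bla HEK293T cells in charcoal-stripped FBS medium were exposed to compounds with R5020 for 16 hr; CellTiter-Glo was added and luminescence read after 30 min at room temperature.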
Potency is the fitted concentration of half-maximal effect.

CO[Si](CCCNCCN)(OC)OC
Potency [1]: active: 44.3 µM [sample A] and inactive [sample B]

COc1cc(NC(=O)CC(C)=O)c(OC)cc1Cl
Potency [2]: inactive [sample A] and active: 38.6 µM [sample B]

O=[N+]([O-])c1ccccc1C(F)(F)F
Potency [3]: active: 59.8 µM [sample A] and inactive [sample B]

CC1=CC(=O)CC(C)(C)C1
Potency [4]: active: 15.8 µM [sample A] and inactive [sample B]
Potency [5]: active: 12.5 µM [sample A] and inactive [sample B]
Potency [6]: active: 22.3 µM [sample A] and inactive [sample B]
Potency [7]: active: 14.1 µM [sample A] and inactive [sample B]

From PubChem BioAssay (Tox21)
